The supplement of paper PMC10126150
Values marked as one replicate rest on one cluster of the flow cell; about a third of the high ones do not repeat.

These sequences were tested on ATP (assay: switch fluorescence ratio, 500 uM ATP over buffer (Cy3 cluster intensity, sum of 5 cycles each) (fold (ratio)); higher = stronger signal-on switching upon ATP binding; sequences stand for … in TCGTCGGCAGCGTCAGATGTGTATAAGAGACAGTTTTTTTTTTTTTTTTTTTTTTTTT…TC). Details: aptamer strand: ATP DNA aptamer (quencher-CACCTGGGGGAGTATTGCGGAGGAAGG + anchor), 100 nM annealed; ATP concentration: 500 uM; one replicate.
In short: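 Five buffer/ATP imaging cycles were run on Cy3-labelled switching-strand clusters on a modified Illumina MiSeq flow-cell, with NaOH stripping and re-annealing between cycles. In each cycle, clusters annealed to 100 nM quencher-labelled ATP aptamer were imaged in selection buffer, then after 15 min with 500 uM ATP at 22 °C. Per cluster, the fluorescence ratio is summed target-cycle over summed buffer-cycle Cy3 intensity, averaged per switch-domain sequence. Only clusters within 100-1000 RFU were kept.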
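Note: ATP exposure 15 min at 22 °C before imaging.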

Row | Sequence | switch fluorescence ratio
1 | TGGGGTGTC | 1.09
2 | TATTAGTTAT | 1.02
3 | GACGCGGTCG | 0.926
4 | AGTATGGAAC | 1.03
5 | GACTGTCTCC | 1.05
6 | GTCAGCAGTG | 1.02
7 | CCTCATGTGT | 1.25
8 | AACGAAGCCC | 1.16
9 | AAAATGTGC | 0.967
10 | ACAAACTATG | 1.11
11 | GCCATAAAGT | 1.02
12 | CTAATGGTCG | 0.972
13 | GCGTTGACTG | 1.07
14 | CGGCTGTAGA | 1.04
15 | GTTTGTCGCG | 0.962
16 | TCGGCTGCGA | 1.26
17 | GGTCTTGCAG | 0.968
18 | TCCATAGTGT | 1.02
19 | CTTCTGAGCG | 1.07
20 | AGATAGAACG | 1.01
21 | TCTGTAGTA | 1.06
22 | TGTCAGGATG | 0.98
23 | GGCCTGGGGA | 0.995
24 | ATATTTATAA | 1.05
25 | GAGACGATGC | 1.15

Row | Sequence | switch fluorescence ratio
26 | CGTGTTGTCA | 1.01
27 | TACCCGTGGA | 1.01
28 | ACTCTTCTTG | 1.03
29 | CGTGCACAGA | 0.994
30 | TGTGAACTTC | 0.963
31 | ACGAGATTGA | 1.05
32 | TGGAATCTAG | 1
33 | TCTTCGTTAT | 1.07
34 | AGGACTGTAC | 1.39
35 | TACGCGCATA | 1.76
36 | AGGACGTCG | 0.955
37 | GAGCCAGCGT | 0.997
38 | AGAATTGGGC | 0.985
39 | GCATGTGGAA | 1
40 | GCTCTACGGA | 1.08
41 | GAGCACCTGT | 1.01
42 | CCTAATCCTC | 1.1
43 | AGCAATGTCG | 1.14
44 | TTTAAGGAGT | 0.951
45 | CCTGAAATTT | 0.986
46 | CTAAGTGTTT | 0.981
47 | AGGATCTCTT | 1.02
48 | GCAGCATGCG | 1.01
49 | TAACGAAAGT | 1.18
50 | GCTCGAAAGG | 1.01

Row | Sequence | switch fluorescence ratio
51 | CCAAACTAGA | 0.918
52 | CAAAAGGATC | 1.06
53 | TATAAATTAT | 1.05
54 | AATTTCGATT | 0.994
55 | ACTGAGGGTC | 1
56 | TTCGATTCTC | 0.985
57 | TACTGGGTAA | 1.02
58 | TAAACAGAGT | 0.982
59 | TGCCTCAAAT | 1.01
60 | TGCGCTCCCG | 1.06
61 | GGCTAAGCA | 1
62 | ACTTAGTTTG | 1.03
63 | ATTGCGTGGA | 1.02
64 | GCTTCCCTGT | 1.09
65 | GAACAAGAGG | 1.02
66 | TAAAGATTA | 0.977
67 | TTGCCACGCA | 1.03
68 | TCGGGCTTTG | 0.978
69 | CGTGAAACGC | 1.01
70 | CGCGTGGACG | 1.03
71 | TATTCGCGGA | 0.981
72 | CACATAGTGC | 1.04
73 | ATGCGAGAAT | 0.98
74 | CAGCCATTGC | 1.05
75 | GGGCTTCCAT | 1.01

Row | Sequence | switch fluorescence ratio
76 | GTAAGGCGGA | 1
77 | GATCAGGCCC | 0.986
78 | TGGACGAAAT | 1.08
79 | TTCTCCTCAG | 1.31
80 | CGATAGCGTA | 1.06
81 | TAGCATGAAG | 0.978
82 | CTCGATCTTC | 1.02
83 | ACATCAGAAA | 0.992
84 | CGCTCGATAG | 1.23
85 | ATAGCTCATT | 1.05
86 | TAGAGTCGTA | 1.07
87 | GTTTCTATTC | 1
88 | CGTGTCGCCG | 1.01
89 | ACTCCGTGTT | 2.68
90 | TCCCTTTAGC | 1.02
91 | TGACACGTAG | 1.08
92 | GGACGGGAGG | 0.941
93 | ATTGATAACA | 0.955
94 | GTTGATGAAA | 1
95 | CATCACAGGG | 1.14
96 | CACGGAGGCC | 1.11
97 | GCCCCTGTAC | 1.88
98 | AGTTGCGCAC | 0.969
99 | TACGGAGCG | 1.47
100 | AGTCGAATCG | 0.999

Row | Sequence | switch fluorescence ratio
101 | TGAATGCTGC | 0.993
102 | TAGCGCCAA | 1.08
103 | CGAAAGGAAC | 1.01
104 | AGCCGCGTTT | 1.02
105 | GCTTATGTGG | 0.922
106 | TTGGTATCAA | 1.01
107 | GGCAGTATAG | 1.01
108 | TAAGTTGATG | 1.05
109 | CACAACCCTT | 0.987
110 | TCGGCGATTA | 1.03
111 | GAAATGTTGC | 0.953
112 | TGACCCATTA | 1.02
113 | GTAATGACCG | 1.17
114 | CACAAGTTTC | 1.06
115 | ATGGTGGGCC | 1.03
116 | TCTGAGAACA | 0.995
117 | CACTAATTAT | 1.01
118 | CGTAATGTTC | 1.22
119 | AGAGATAGAT | 1.03
120 | ATACCCACAG | 1.42
121 | CATTTCGTAG | 1.01
122 | GATATGGTTG | 0.978
123 | ATGCAGCGTT | 0.942
124 | ACTCATGGTA | 1.08
125 | TGTCCAAACT | 1.06

Row | Sequence | switch fluorescence ratio
126 | AGTTGTGA | 1.02
127 | TGGGCGTATG | 0.954
128 | CGAAAAACAG | 1.11
129 | GGGTTTAACA | 1.07
130 | CCAGACTTAA | 1.04
131 | CCAGCATCGA | 1.13
132 | CCTTTTAAT | 1.04
133 | GTTGAAGGGT | 0.988
134 | GGTAATCTGA | 0.991
135 | TATAGTGTAT | 1.05
136 | CAGAACAACC | 1.05
137 | TGATTAATGC | 1.08
138 | ATGTGCAGTC | 1.03
139 | CGATGTGAC | 1.24
140 | AAGGTTAGAT | 0.989
141 | AGACCACTTT | 0.983
142 | GGGGTTCGAG | 0.988
143 | ACGGTGCTCG | 0.946
144 | CCGGGGAAAT | 1.1
145 | AGCTTATCTT | 1
146 | ATGGAGTCAA | 1.36
147 | CCCAATCCAA | 1.07
148 | ATCGGACGTA | 1.02
149 | GATGAACTAT | 0.989
150 | CACACCTGTA | 1.03

Row | Sequence | switch fluorescence ratio
151 | GCTTTAACCT | 1.66
152 | TCTTCGTGTG | 1.09
153 | AAATTGACTA | 1.01
154 | AAATTCTCAT | 1.02
155 | CGGAATGCA | 1.15
156 | GACTAGATAT | 0.99
157 | GTCGTCTGA | 0.987
158 | AAGCTCTTTC | 1.01
159 | AAGGTGCTAC | 1.1
160 | GCCTCAGCCA | 1.31
161 | GGCTTTTGAA | 0.995
162 | CGGCAGACGG | 0.973
163 | GTTCCGATCG | 1.65
164 | CGTGACGGGA | 0.986
165 | AGCAGAATAC | 4.48
166 | CTCTGGTCAC | 1.14
167 | CGTAAGTAGC | 1.03
168 | TTGCCCGAAT | 1.02
169 | AGACCGGGAG | 1.01
170 | GGATTCATAT | 1
171 | AGAATTTAG | 1.03
172 | GTGGGCGCAG | 0.974
173 | GTCGTTTACA | 1
174 | GCCATCGTTC | 0.976
175 | GTTCTAGTCC | 0.948

Row | Sequence | switch fluorescence ratio
176 | GGCACGCGGC | 1.04
177 | TTGCAGCGTT | 0.985
178 | CGCACATTCG | 1.29
179 | TGCAGGTCGG | 0.951
180 | GGCGCTGGTA | 1.02
181 | ACTCGCTCG | 1.04
182 | CCAAAGCCTG | 0.998
183 | TCCGACTTAA | 3.45
184 | GCCGGTGGGA | 1.03
185 | AACGATCGTG | 0.972
186 | CGTGCCCGCA | 1.16
187 | AGGGGTGTGA | 1.01
188 | TAGTACAATC | 0.983
189 | TTTATAAAG | 1.22
190 | GAAATGTCCA | 1
191 | AAAAATGGCC | 1.01
192 | TCGGTTTACA | 0.969
193 | ATGAGGTACG | 1.02
194 | ACGGGCCGAT | 1.02
195 | ATAGTGTCAA | 0.981
196 | ATTAGTAATA | 1.02
197 | CGCAAACCTG | 1.21
198 | TACACTTCTA | 1
199 | ACCCCTCTTA | 1.01
200 | GATCATGGGC | 1.02
